According to patent US20250297021A1 (SHANDONG SIMCERE BIOPHARMACEUTICAL CO NO 1, published 2025):

T1: human BCMA on cells (human, UniProt Q02223 1-184)
T1 construct: whole, on cells; also called H929 cells; U266 cells
T1 sequence (looked up): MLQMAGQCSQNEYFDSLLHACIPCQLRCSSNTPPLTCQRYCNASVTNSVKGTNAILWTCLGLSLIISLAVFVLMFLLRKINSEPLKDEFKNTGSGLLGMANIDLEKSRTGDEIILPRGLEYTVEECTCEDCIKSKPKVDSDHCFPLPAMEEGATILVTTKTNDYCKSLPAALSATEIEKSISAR

T2: human BCMA-His protein (human, UniProt Q02223 1-54)
T2 construct: bought; also called human BCMA protein; not shown: His tag
T2 sequence (looked up): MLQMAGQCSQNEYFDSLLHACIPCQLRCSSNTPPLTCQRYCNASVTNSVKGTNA


What was measured:
human BCMA on cells [1] = molecular target: T1, human BCMA on cells; experiment: cell ELISA, Flp-inCHO-human BCMA cells; Ab 100.00 nM
Text: (§1) The specific method was as follows: The required cells were scale-up cultured in a T-75 cell culture flask to the logarithmic growth phase, the medium was aspirated, the cells were washed twice with a PBS buffer, and then digested with trypsin. Then the digestion was terminated with a complete medium, and the cells were pipetted to obtain a single cell suspension. After the cells were counted and centrifuged, the cell precipitate was resuspended to 4×10⁵ cells per milliliter with a complete medium, and the suspension was added to a 96-well flat-bottomed cell culture plate at 100 μl/well, and cultured overnight in a 37° C., 5% carbon dioxide incubator. On the next day, the medium in the 96-well plate was discarded, the cells were washed once with PBS, and then fixed at room temperature for 0.5 h with an immunostaining fixative (purchased from Beyotime, catalog number: P0098-500 ml) at 50 μl/well. A blocking solution [PBS+5% (w/v) skim milk] was added for blocking at room temperature for 2 h. The blocking solution was discarded, the plate was washed 3 times with PBS, and 100 nM BCMA human-mouse chimeric antibody diluted gradiently or control antibody was added at 50 μl/well. After incubation at 37° C. for 2 h, the plate was washed 3 times with PBS. HRP (horseradish peroxidase)-labeled secondary antibody (purchased from Merck, catalog number: AP113P) was added, and incubated at 37° C. for 1 h, and the plate was washed 5 times with PBS. TMB substrate was added at 50 μl/well, and incubated at room temperature for 10 min, then a stop solution (1.0 M HCl) was added at 50 μl/well. The OD450 nm values were read by an ELISA microplate reader (Multimode Plate Reader, EnSight, purchased from Perkin Elmer). The chimeric antibodies bind well to Flp-inCHO-human BCMA cells. The IgG subtype control is human IgG1.

monkey BCMA-His protein = molecular target: T3, monkey BCMA-His protein (monkey, UniProt A0A2K5UD97 1-53); experiment: ELISA, monkey BCMA-His coated; Ab 10 nM
Chain of monkey BCMA-His protein (A0A2K5UD97 entry or part of it limits assumed): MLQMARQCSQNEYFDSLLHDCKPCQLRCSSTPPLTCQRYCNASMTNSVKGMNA
T3 construct: bought; monkey species not further stated for this product; also called monkey BCMA protein
Method: (§2) The specific method was as follows: Human BCMA protein (purchased from Acro, catalog number: BCA-H522y) and monkey BCMA protein (purchased from Acro, catalog number: BCA-C52H7) were diluted with PBS to a final concentration of 1 μg/mL, respectively, and then added to a 96-well ELISA plate at 50 μl/well. The plate was sealed with a plastic film and incubated overnight at 4° C., the plate was washed twice with PBS the next day, and then a blocking solution [PBS+2% (w/v) BSA] was added for blocking at room temperature for 2 h. The blocking solution was discarded, the plate was washed 3 times with PBS, and 100 nM BCMA human-mouse chimeric antibody diluted gradiently or control antibody was added at 50 μl/well. After incubation at 37° C. for 2 h, the plate was washed 3 times with PBS. HRP (horseradish peroxidase)-labeled secondary antibody (purchased from Merck, catalog number: AP113P) was added, and incubated at 37° C. for 1 h, and the plate was washed 5 times with PBS. TMB substrate was added at 50 μl/well, and incubated at room temperature for 10 min, then a stop solution (1.0 M HCl) was added at 50 μl/well. The OD450 nm values were read by an ELISA microplate reader (Multimode Plate Reader, EnSight, purchased from Perkin Elmer). The results are shown in Table 7, Table 8 and FIGS. 7A-7B and FIG. 8A-8B. All chimeric antibodies have good binding activity with human BCMA protein; except that BCMA-mAb06 has no cross-binding activity with monkey BCMA protein and BCMA-mAb07 has weak binding to monkey BCMA protein, other chimeric antibodies have good binding activity with monkey BCMA protein. The IgG subtype control is human IgG1.

human BCMA on cells [2] = molecular target: T1, human BCMA on cells; experiment: cell ELISA, Flp-inCHO-human BCMA cells; Ab 1.23 nM
Text: as §1

human BCMA on cells [3] = molecular target: T1, human BCMA on cells; experiment: cell ELISA, Flp-inCHO-human BCMA cells; Ab 0.05 nM
Text: as §1

human BCMA-His protein [4] = molecular target: T2, human BCMA-His protein; experiment: ELISA, human BCMA-His coated; Ab 0.0001 nM
Method: as §2

human BCMA on cells [5] = molecular target: T1, human BCMA on cells; experiment: cell ELISA, Flp-inCHO-human BCMA cells; Ab 0.01 nM
Text: as §1

human BCMA-His protein [6] = molecular target: T2, human BCMA-His protein; experiment: ELISA, human BCMA-His coated; Ab 100 nM
Method: as §2

human BCMA on cells [7] = molecular target: T1, human BCMA on cells; experiment: cell ELISA, Flp-inCHO-human BCMA cells; Ab 0.41 nM
Text: as §1

human BCMA-His protein [8] = molecular target: T2, human BCMA-His protein; experiment: ELISA, human BCMA-His coated; Ab 0.001 nM
Method: as §2

human BCMA-His protein [9] = molecular target: T2, human BCMA-His protein; experiment: ELISA, human BCMA-His coated; Ab 10 nM
Method: as §2

human BCMA on cells [10] = molecular target: T1, human BCMA on cells; experiment: cell ELISA, Flp-inCHO-human BCMA cells; Ab 33.33 nM
Text: as §1

human BCMA on cells [11] = molecular target: T1, human BCMA on cells; experiment: cell ELISA, Flp-inCHO-human BCMA cells; Ab 11.11 nM
Text: as §1

human BCMA-His protein [12] = molecular target: T2, human BCMA-His protein; experiment: ELISA, human BCMA-His coated; Ab 0.1 nM
Method: as §2

Binder	OD450 (human BCMA on cells [1])	OD450 (monkey BCMA-His protein)	OD450 (human BCMA on cells [2])	OD450 (human BCMA on cells [3])	OD450 (human BCMA-His protein [4])	OD450 (human BCMA on cells [5])	OD450 (human BCMA-His protein [6])	OD450 (human BCMA on cells [7])	OD450 (human BCMA-His protein [8])	OD450 (human BCMA-His protein [9])	OD450 (human BCMA on cells [10])	OD450 (human BCMA on cells [11])	OD450 (human BCMA-His protein [12])
BCMA-mAb01 (Fc fusion) scFv: EVKLVESGGGLVQPGGSLKLSCAASGFTFSDFYMYWVRQTPEKRLEWVAYITNGGENTYFPDTVKGRFTISRDNAKNTLYLQMSRLKSEDTAMYYCARQNPFYYYDSNYDYAMDFWGQGTSVTVSSGGGGSGGGGSGGGGSDVVMTQTPLTLSVTIGQPASISCKSSQSLLYSNGKTYLSWLFQRPGQSPKRLIYLVSELDSGVPDRFTGSGSGTDFTLKISRVEAEDLGIYYCVQGTHFPHTFGGGTKLEIK[human IgG1 Fc with C220S (EU numbers) not spelt out]	1.08	2.6	0.7	0.22	0.07	0.1	2.89	0.56	0.06	2.52	1.05	0.9	0.43
BCMA-mAb02 (Fc fusion) scFv: EVQLVESGGDLVQPGESLKLSCESNAYEFPSYDMSWVRKTPEKRLELVAAINSDGGITYYPDTMERRFIISRDNTKKTLYLQMSSLRSEDTALYYCARHGYGGGAYVLDYWGQGTSVTVSSGGGGSGGGGSGGGGSDIVMTQSQKFMSTTVGDRVRITCKASQNVGTAVAWYQQKPGQSPKVLIYSASSRYTGVPDRFTGSGSGTDFTLTINNMQSEDLADYFCQQYSNYHLTFGTGTKLELK[human IgG1 Fc with C220S (EU numbers) not spelt out]	1.18	2.55	0.87	0.18	0.05	0.09	2.77	0.54	0.05	2.42	1.11	1.06	0.24
BCMA-mAb03 (Fc fusion) scFv: QIPLVQSGPELKKPGETVKISCKASGYTFTNYAMTWVKQAPGKGLKWMGWIDTYSGVPTYADDFKGRFAFSLETSATTAYLQINNLKNEDTATYFCARVGVYGGYDTLDSWGQGTSVTVSSGGGGSGGGGSGGGGSDIQMTQTTSSLSASLGDRVTISCSASQGISNHLNWYQQKPDGTVKLLIYYTSSLHSGVPSRFSGSGSGTDYSLTISNLEPEDFATYYCQQYNNLPWTFGGGTKLEIK[human IgG1 Fc with C220S (EU numbers) not spelt out]	1.15	2.58	0.67	0.19	0.06	0.09	3.2	0.4	0.07	2.51	1.07	0.87	0.21
BCMA-mAb04 (Fc fusion) scFv: QVQLQQSGAELARPGASVDLSCKASGYSFTSYGISWVKLRTGQGLEWIGEIYPRDDITYYNEKFKGKTTLTADKSSSTAYMELRSLTSEDSAVYFCARHDYYYVNSVSAMDYWGQGTSVTVSSGGGGSGGGGSGGGGSDIVMSQSPSSLAVSVGEKVTMSCKSSQSLLYSSNQKNYLAWYQQKPGQSPKLLIYWASTRYSGVPDRFTGSGSGTDFTLTVSSVRAEDLALYYCQQYYIYPWTFGGGTKLEIK[human IgG1 Fc with C220S (EU numbers) not spelt out]	1.15	2.66	0.68	0.18	0.07	0.07	2.63	0.42	0.08	2.59	1.09	0.94	0.26
BCMA-mAb05 (Fc fusion) scFv: QGQMQQSDAELVKPGASVQISCKASGYMFTDHTFHWMRQRPEQGLEWIGYIYPRDDNTKYNEKFKGKATLTADKSSSTAYIHLNSLTSEDSAVYFCARAGYYGSSHAMDYWGQGTSVTVSSGGGGSGGGGSGGGGSDIVMTQSHKFMSTSVGDRVSITCKASQDVSTAVAWYQQKPGQSPRLLIYSASSRYTGVPDRFTGSGSGTDFTFTISSVQTEDLAVYYCQQLYSTPWTFGGGTKLEIK[human IgG1 Fc with C220S (EU numbers) not spelt out]	1.31	2.71	0.84	0.22	0.08	0.1	2.14	0.65	0.12	2.73	1.24	1.17	1.2
BCMA-mAb07 (Fc fusion) scFv: QVQLQQSGAELAKPGASVKLSCKASGYTFTDYWTHWVKQRPGQGLEWIGYINHGSGYTKYNQKFKDKATLTADKSSSTAYMQVSSLTYEDSAVYYCARLTGSYYFDYWGQGTTLTVSSGGGGSGGGGSGGGGSQIVLTQSPAIMSASPGEKVTMTCSASSSVSYMHWYQQKSGTSPKRWIYDTSKLASGVPPRFSGSGSGTSYSLTISSMEAEDAATYYCQQWSSNPLTFGAGTKLELK[human IgG1 Fc with C220S (EU numbers) not spelt out]	0.91		0.76	0.19	0.08	0.1	2.29	0.6	0.14	2.21	0.84	1.01	1.46
